Measured values reported in the supplement of paper PMC3353916.
± gives the standard deviation of the averaged measurements.

System: Sindbis virus TE/5'2J-GFP
Test: percent infected (GFP+ in RFP+ ISG-expressing cells); higher = more infection (less antiviral activity)
Method: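 Confirmatory testing of 87 ISGs. Triplicate wells of BHK/HA-Zeo (control) or BHK/NZAP-Zeo (ZAP) cells were transduced with lentiviruses co-expressing a human ISG plus TagRFP, then infected 48 h later with SINV TE/5'2J-GFP (moi 5). The % GFP+ cells among RFP+ cells was measured by flow cytometry at 8 h post infection. Fluc lentivirus served as control. Three independent experiments.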

[1] = experiment: confirmatory screen 1, BHK/HA-Zeo (control)
[2] = experiment: confirmatory screen 1, BHK/NZAP-Zeo (ZAP)
[3] = experiment: confirmatory screen 2, BHK/HA-Zeo (control)
[4] = experiment: confirmatory screen 2, BHK/NZAP-Zeo (ZAP)
[5] = experiment: confirmatory screen 3, BHK/HA-Zeo (control)
[6] = experiment: confirmatory screen 3, BHK/NZAP-Zeo (ZAP)
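Note: Interferon-defective BHK-21 derivatives, ZAP line overexpressing the rat ZAP N-terminal zinc finger domain fused to Zeocin resistance, GFP scored within live singlet TagRFP+ cells.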

MAAGGPGAGSAAPVSSTSSLPLAALNMRVRRRLSLFLNVRTQVAADWTALAEEMDFEYLEIRQLETQADPTGRLLDAWQGRPGASVGRLLELLTKLGRDDVLLELGPSIEEDCQKYILKQQQEEAEKPLQVAAVDSSVPRTAELAGITTLDDPLGHMPERFDAFICYCPSDIQFVQEMIRQLEQTNYRLKLCVSDRDVLPGTCVWSIASELIEKRCRRMVVVVSDDYLQSKECDFQTKFALSLSPGAHQKRLIPIKYKAMKKEFPSILRFITVCDYTNPCTKSWFWTRLAKALSLP [MYD88]
percent infected [1]: 76.9 ± 6.5%
percent infected [2]: 31.5 ± 3.7%
percent infected [3]: 91.74 ± 0.51%
percent infected [4]: 90.709 ± 0.089%
percent infected [5]: 84.9 ± 1.7%
percent infected [6]: 82.1 ± 1.9%

STAT3 (no sequence given)
percent infected [1]: 88.5 ± 5.8%
percent infected [2]: 69 ± 2.6%
percent infected [3]: 94.9 ± 0.33%
percent infected [4]: 94.94 ± 0.58%
percent infected [5]: 95.31 ± 0.41%
percent infected [6]: 94.87 ± 0.3%
